From the antibiotic and cytotoxicity screens of Wong et al. (2023) come the findings set out here.

This is one part of the list.

Test [1] concerns HSkMC (human skeletal muscle cells). In words: cytotoxicity call (relative viability < 0.9). To be noted: 10 µM.
The test system of test [2] is S. aureus RN4220. Put plainly: growth inhibition call (relative growth <= 0.2). To be noted: 50 µM.

Consider `C[C@@H]1CN([C@H](C)CO)C(=O)c2cccc(NC(=O)CCCCCC(=O)Nc3ccccc3N)c2O[C@@H]1CN(C)CC1CCCCC1`, for which the cytotoxicity call in test [1] was “inactive”. Moreover, the growth inhibition call in test [2] is “inactive”.

On to `C[C@H](CO)N1C[C@H](C)[C@@H](CN(C)Cc2ccc3c(c2)OCO3)OCCCC[C@H](C)Oc2ccc(NC(=O)Nc3ccc4c(c3)OCO4)cc2C1=O`, for which the cytotoxicity call in test [1] was “inactive”. In test [2], the growth inhibition call was “inactive”.

`Clc1ccc2nncn2n1`: the cytotoxicity call in test [1] was “inactive”. Moreover, the growth inhibition call in test [2] is “inactive”.

As for `C[C@H]1CN([C@@H](C)CO)C(=O)c2cccc(NC(=O)C3CC3)c2O[C@H]1CN(C)S(=O)(=O)c1ccc(F)cc1`, the cytotoxicity call in test [1] is “inactive”. Moreover, the growth inhibition call in test [2] is “inactive”.

Take `C[C@H](CO)N1C[C@H](C)[C@@H](CN(C)Cc2ccc(Cl)c(Cl)c2)Oc2ccc(NC(=O)Cn3cnnn3)cc2CC1=O`: the cytotoxicity call in test [1] was “inactive”. Besides, in test [2], the growth inhibition call is “inactive”.

On to `CNC[C@H]1OCCCC[C@@H](C)Oc2ccc(NC(=O)Nc3cccc4ccccc34)cc2C(=O)N([C@H](C)CO)C[C@H]1C`, for which the cytotoxicity call in test [1] is “inactive”. Besides, in test [2], the growth inhibition call is “inactive”.

Consider `COc1cc(C(=O)NCCCN2CCCN(CCCNC(=O)c3cc(OC)c(OC)c(OC)c3)CC2)cc(OC)c1OC`, for which, in test [1], the cytotoxicity call is “inactive”. Further, the growth inhibition call in test [2] is “inactive”.

With `C[C@H](CO)N1C[C@H](C)[C@H](CN(C)S(=O)(=O)c2cccc(F)c2)Oc2ncc(C#CC3CCCC3)cc2C1=O`, the cytotoxicity call in test [1] was “inactive”. In addition, the growth inhibition call in test [2] was “inactive”.

For `CO[C@@H]1CN(C)C(=O)c2cc(NC(=O)Nc3ccccc3F)ccc2OC[C@H](C)N(CCC(F)(F)F)C[C@@H]1C`, the cytotoxicity call in test [1] was “inactive”. The growth inhibition call in test [2] was “inactive”.

`O=C(C[C@H]1CC[C@H]2[C@@H](COC[C@@H](O)CN2C(=O)Nc2ccc(C(F)(F)F)cc2)O1)NCCc1ccncc1`: in test [1], the cytotoxicity call is “inactive”. In test [2], the growth inhibition call was “active”.

In the case of `CC(C)CC#Cc1ccc2c(c1)O[C@H](CN(C)C(=O)NC1CCCC1)[C@H](C)CN([C@H](C)CO)S2(=O)=O`, the cytotoxicity call in test [1] was “inactive”. In addition, the growth inhibition call in test [2] is “inactive”.

In the case of `Cc1cc(C)n(-c2ccc(=O)n(CC(=O)N3CCN(S(=O)(=O)c4ccc(F)cc4)CC3)n2)n1`, the cytotoxicity call in test [1] is “inactive”. For the same compound, in test [2], the growth inhibition call is “inactive”.

For `C[C@@H]1CN([C@@H](C)CO)C(=O)c2cc(NC(=O)NC3CCCCC3)ccc2O[C@@H](C)CCCCO[C@@H]1CN(C)S(=O)(=O)c1cccs1`, the cytotoxicity call in test [1] was “inactive”. Further, the growth inhibition call in test [2] is “inactive”.

For the compound `CCS(=O)(=O)NCC[C@@H]1CC[C@H](NC(=O)Cc2ccccn2)[C@@H](CO)O1`, in test [1], the cytotoxicity call is “inactive”. Also, the growth inhibition call in test [2] was “inactive”.

As to `COCC(=O)N(C)C[C@@H]1Oc2cc(C#C[C@H](C)O)ccc2S(=O)(=O)N([C@@H](C)CO)C[C@@H]1C`, the cytotoxicity call in test [1] is “inactive”. Further, in test [2], the growth inhibition call is “inactive”.

With `C[C@H](CO)N1C[C@H](C)[C@H](CN(C)Cc2ccc(Cl)c(Cl)c2)Oc2ccc(NC(=O)Cc3ccccc3)cc2CC1=O`, in test [1], the cytotoxicity call is “inactive”. The growth inhibition call in test [2] is “inactive”.

`CC(C)NC(=O)N(C)C[C@H]1Oc2ccc(NC(=O)CCC(F)(F)F)cc2C(=O)N([C@H](C)CO)C[C@H]1C`: in test [1], the cytotoxicity call was “inactive”. In addition, the growth inhibition call in test [2] is “inactive”.

On to `C[C@@H]1CN([C@@H](C)CO)C(=O)c2cc(NS(=O)(=O)c3cccs3)ccc2O[C@@H](C)CCCCO[C@@H]1CN(C)CC1CCCCC1`, for which the cytotoxicity call in test [1] is “inactive”. Moreover, in test [2], the growth inhibition call was “inactive”.

For the compound `CCS(=O)(=O)N1CC[C@]2(CC1)CN([C@@H](CO)c1c2c2ccc(cc2n1C)OC)S(=O)(=O)c1ccccc1`, in test [1], the cytotoxicity call is “inactive”. In addition, in test [2], the growth inhibition call was “inactive”.

As for `C[C@@H]1CCCCO[C@H](CN(C)Cc2ccc3c(c2)OCO3)[C@@H](C)CN([C@@H](C)CO)C(=O)c2cc(NC(=O)C3CCCCC3)ccc2O1`, in test [1], the cytotoxicity call was “inactive”. Moreover, the growth inhibition call in test [2] is “inactive”.

On to `C[C@H](CO)N1C[C@H](C)[C@H](CN(C)Cc2ccc(C(=O)Nc3ccccc3N)cc2)Oc2c(NC(=O)c3ccc(-c4nccs4)cc3)cccc2C1=O`, for which the cytotoxicity call in test [1] is “inactive”. Further, the growth inhibition call in test [2] is “inactive”.

`C[C@H](O)C#Cc1ccc2c(c1)O[C@H](CN(C)C(=O)CN(C)C)[C@@H](C)CN([C@@H](C)CO)S2(=O)=O`: in test [1], the cytotoxicity call was “inactive”. Moreover, in test [2], the growth inhibition call is “inactive”.

As to `COc1ccc(NC(=O)Nc2ccc3c(c2)C(=O)N([C@H](C)CO)C[C@@H](C)[C@@H](CN(C)C(=O)Nc2ccc(C(F)(F)F)cc2)O3)cc1`, in test [1], the cytotoxicity call is “inactive”. Besides, the growth inhibition call in test [2] was “inactive”.

On to `COc1ccc(NC(=O)Nc2ccc3c(c2)C(=O)N([C@@H](C)CO)C[C@@H](C)[C@H](CN(C)C(=O)Nc2ccccc2)OCCCC[C@H](C)O3)cc1`, for which the cytotoxicity call in test [1] was “inactive”. In test [2], the growth inhibition call is “inactive”.

`Cc1noc(C)c1S(=O)(=O)N(C)C[C@@H]1Oc2ccc(NS(=O)(=O)c3cccs3)cc2CC(=O)N([C@H](C)CO)C[C@@H]1C`: the cytotoxicity call in test [1] is “inactive”. The growth inhibition call in test [2] is “inactive”.

In the case of `C[C@@H]1CCCCO[C@@H](CN(C)S(=O)(=O)c2cccs2)[C@@H](C)CN([C@@H](C)CO)C(=O)c2cc(NC(=O)c3ccccc3)ccc2O1`, the cytotoxicity call in test [1] was “inactive”. Besides, the growth inhibition call in test [2] is “inactive”.

Regarding `O=C(C[C@H]1C=C[C@H](NC(=O)c2cnccn2)[C@H](CO)O1)NCc1ccccc1F`, the cytotoxicity call in test [1] is “inactive”. For the same compound, the growth inhibition call in test [2] was “inactive”.

As for `C[C@@H]1CN([C@H](C)CO)C(=O)c2cc(NC(=O)CCCN(C)C)ccc2O[C@@H](C)CCCCO[C@H]1CN(C)CC1CCCCC1`, the cytotoxicity call in test [1] is “inactive”. Moreover, in test [2], the growth inhibition call is “inactive”.

Consider `COc1ccc([C@@H](NC(=O)C2CCN(Cc3ccc(Oc4ccccc4)cc3)CC2)c2ccccc2C)cn1`, for which the cytotoxicity call in test [1] was “inactive”. In addition, in test [2], the growth inhibition call is “inactive”.

For `C[C@H](CO)N1C[C@H](C)[C@@H](CN(C)Cc2ccc(-c3ccccc3)cc2)Oc2ccc(NC(=O)Nc3cccc4ccccc34)cc2CC1=O`, in test [1], the cytotoxicity call was “inactive”. For the same compound, in test [2], the growth inhibition call is “inactive”.
